# Some of the results follow. Most values come without repeats; read them as rough.
# How the values were obtained:
# Assay in all cases: cell count relative to DMSO control; melanoma cells; higher = more viable cells
# Conditions in all cases: library dose: standard library concentration; 72 h
# [1] = system: 501Mel
# [2] = system: A101D
# [3] = system: A2058
# [4] = system: A375
# 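Also: cells treated in 1,536-well plates, then fixed and DAPI-stained, with nuclei counted from automated high-throughput microscope images.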
SMILES,cell count [1] [%],cell count [2] [%],cell count [3] [%],cell count [4] [%]
"C=C(c1ccc(C(=O)O)cc1)c1cc2c(cc1C)C(C)(C)CCC2(C)C [Bexarotene] + Oc1nc(-c2ccc(C(F)(F)F)cc2)nc2c1CSCC2 [XAV939] (first compound 10 µM, partner dose 10 µM)",90.4,80.8,82,110
"CS(=O)(=O)c1ccc(C(=O)Nc2ccc(Cl)c(-c3ccccn3)c2)c(Cl)c1 [vismodegib] + CC(C)CCN1c2nc(Nc3cc(F)c(O)c(F)c3)ncc2N(C)C(=O)C1C [BID1870] (first compound 5 µM, partner dose 1 µM)",77.7,60.9,81.8,105
"CCCS(=O)(=O)Nc1ccc(F)c(C(=O)c2c[nH]c3ncc(Cl)cc23)c1F + O=C(Nc1ccccc1)c1cc([N+](=O)[O-])ccc1Cl [GW9662] (first compound 0.4 µM, partner dose 10 µM)",78.9,65.4,105,88.2
"CN(c1ncccc1CNc1nc(Nc2ccc3c(c2)CC(=O)N3)ncc1C(F)(F)F)S(C)(=O)=O + O=c1cc(-c2cccc3c2Sc2ccccc2S3)oc(N2CCOCC2)c1 [KU55933] (first compound 0.4 µM, partner dose 5 µM)",94.6,87.4,96.7,99
"CS(=O)(=O)c1ccc(C(=O)Nc2ccc(Cl)c(-c3ccccn3)c2)c(Cl)c1 [vismodegib] + Oc1cc(-c2nc(-c3ccccc3)[nH]c2-c2ccncc2)ccc1Cl [L779450] (first compound 5 µM, partner dose 1 µM)",55.9,66.3,94.6,86.6
"C=C(c1ccc(C(=O)O)cc1)c1cc2c(cc1C)C(C)(C)CCC2(C)C [Bexarotene] + COc1cc(N2CCC(N3CCN(C)CC3)CC2)ccc1Nc1ncc(Cl)c(Nc2ccccc2S(=O)(=O)C(C)C)n1 [NVP-TAE684] (first compound 10 µM, partner dose 0.4 µM)",86.6,89.8,49.6,88.4
"CN(c1ncccc1CNc1nc(Nc2ccc3c(c2)CC(=O)N3)ncc1C(F)(F)F)S(C)(=O)=O + O=S(=O)(c1ccccc1)N(CC(F)(F)F)c1ccc(C(O)(C(F)(F)F)C(F)(F)F)cc1 [T0901317] (first compound 0.4 µM, partner dose 7 µM)",48.2,80,72.8,67.6
"CS(=O)(=O)c1ccc(C(=O)Nc2ccc(Cl)c(-c3ccccn3)c2)c(Cl)c1 [vismodegib] + Cc1cc([N+](=O)[O-])ccc1NS(=O)(=O)c1cc(Cl)ccc1Cl [FH535] (first compound 5 µM, partner dose 5 µM)",68.2,63.4,65.1,84.7
"CS(=O)(=O)c1ccc(C(=O)Nc2ccc(Cl)c(-c3ccccn3)c2)c(Cl)c1 [vismodegib] + CN(c1ncccc1CNc1nc(Nc2ccc3c(c2)CC(=O)N3)ncc1C(F)(F)F)S(C)(=O)=O [PF562271] (first compound 5 µM, partner dose 0.4 µM)",–,92.4,91,72.7
"CCCS(=O)(=O)Nc1ccc(F)c(C(=O)c2c[nH]c3ncc(Cl)cc23)c1F + Nc1nc(F)nc2c1ncn2[C@@H]1O[C@H](CO)[C@@H](O)[C@@H]1O [fludarabine] (first compound 0.4 µM, partner dose 1 µM)",–,71.7,85.5,22.2
"CCCS(=O)(=O)Nc1ccc(F)c(C(=O)c2c[nH]c3ncc(Cl)cc23)c1F + Nc1ncn([C@H]2C[C@H](O)[C@@H](CO)O2)c(=O)n1 [decitabine] (first compound 0.4 µM, partner dose 0.5 µM)",–,73.5,83,99.1
"C=C(c1ccc(C(=O)O)cc1)c1cc2c(cc1C)C(C)(C)CCC2(C)C [Bexarotene] + O=C1NC(=O)/C(=C/c2ccc(-c3ccc(F)cc3O)o2)S1 [AS252424] (first compound 10 µM, partner dose 5 µM)",81.9,93.4,99.6,128
"CN(c1ncccc1CNc1nc(Nc2ccc3c(c2)CC(=O)N3)ncc1C(F)(F)F)S(C)(=O)=O + Cc1cc([N+](=O)[O-])ccc1NS(=O)(=O)c1cc(Cl)ccc1Cl [FH535] (first compound 0.4 µM, partner dose 5 µM)",60.5,56.4,78.9,64.8
"CCCS(=O)(=O)Nc1ccc(F)c(C(=O)c2c[nH]c3ncc(Cl)cc23)c1F + COc1cc(Nc2ncc(F)c(Nc3ccc4c(n3)NC(=O)C(C)(C)O4)n2)cc(OC)c1OC [Tamatinib] (first compound 0.4 µM, partner dose 2 µM)",–,51.5,69,79.1
"CN(c1ncccc1CNc1nc(Nc2ccc3c(c2)CC(=O)N3)ncc1C(F)(F)F)S(C)(=O)=O + COc1cc2c(Oc3ccc4[nH]c(C)cc4c3F)ncnc2cc1OCCCN1CCCC1 [cediranib] (first compound 0.4 µM, partner dose 2 µM)",–,102,67.1,85.7
"CS(=O)(=O)c1ccc(C(=O)Nc2ccc(Cl)c(-c3ccccn3)c2)c(Cl)c1 [vismodegib] + Nc1nc(F)nc2c1ncn2[C@@H]1O[C@H](CO)[C@@H](O)[C@@H]1O [fludarabine] (first compound 5 µM, partner dose 1 µM)",–,107,85.7,27.2
"NC1(c2ccc(-c3nc4ccn5c(=O)[nH]nc5c4cc3-c3ccccc3)cc2)CCC1 + C=CCn1c(=O)c2cnc(Nc3ccc(N4CCN(C)CC4)cc3)nc2n1-c1cccc(C(C)(C)O)n1 [MK1775] (first compound 2 µM, partner dose 0.1 µM)",–,66.1,63.3,40.9
"NC1(c2ccc(-c3nc4ccn5c(=O)[nH]nc5c4cc3-c3ccccc3)cc2)CCC1 + Cc1cc([N+](=O)[O-])ccc1NS(=O)(=O)c1cc(Cl)ccc1Cl [FH535] (first compound 2 µM, partner dose 5 µM)",62.2,66.8,75.5,57.9
"CN(c1ncccc1CNc1nc(Nc2ccc3c(c2)CC(=O)N3)ncc1C(F)(F)F)S(C)(=O)=O + O=C(Nc1ccccc1)c1cc([N+](=O)[O-])ccc1Cl [GW9662] (first compound 0.4 µM, partner dose 10 µM)",100,74.8,96.5,112
"CS(=O)(=O)c1ccc(C(=O)Nc2ccc(Cl)c(-c3ccccn3)c2)c(Cl)c1 [vismodegib] + c1cc(-c2cnn3cc(-c4ccc(OCCN5CCCCC5)cc4)cnc23)ccn1 [Dorsomorphin] (first compound 5 µM, partner dose 2 µM)",46.7,81.5,62.9,109
"CN(c1ncccc1CNc1nc(Nc2ccc3c(c2)CC(=O)N3)ncc1C(F)(F)F)S(C)(=O)=O + COc1ccc(-c2ccc3c(N4CCOCC4)nc(N4C[C@@H](C)O[C@@H](C)C4)nc3n2)cc1CO [KU0063794] (first compound 0.4 µM, partner dose 0.1 µM)",95.8,76.9,78.7,84
"NC1(c2ccc(-c3nc4ccn5c(=O)[nH]nc5c4cc3-c3ccccc3)cc2)CCC1 + O=C(Nc1ccccc1)c1cc([N+](=O)[O-])ccc1Cl [GW9662] (first compound 2 µM, partner dose 10 µM)",69.5,56.9,64.1,129
"CCCS(=O)(=O)Nc1ccc(F)c(C(=O)c2c[nH]c3ncc(Cl)cc23)c1F + COc1ccc(-c2ccc3c(N4CCOCC4)nc(N4C[C@@H](C)O[C@@H](C)C4)nc3n2)cc1CO [KU0063794] (first compound 0.4 µM, partner dose 0.1 µM)",89.3,67.7,88.9,92.2
"C=C(c1ccc(C(=O)O)cc1)c1cc2c(cc1C)C(C)(C)CCC2(C)C [Bexarotene] + COc1ccc(COc2ccc(Cc3cnc(N)nc3N)cc2OC)cc1 [GW2580] (first compound 10 µM, partner dose 5 µM)",90.8,107,97.4,93.9
"CCCS(=O)(=O)Nc1ccc(F)c(C(=O)c2c[nH]c3ncc(Cl)cc23)c1F + COC(=O)c1sccc1S(=O)(=O)Nc1ccc(Nc2ccccc2)cc1OC [GSK0660] (first compound 0.4 µM, partner dose 5 µM)",135,74.1,91.4,87
"C=C(c1ccc(C(=O)O)cc1)c1cc2c(cc1C)C(C)(C)CCC2(C)C [Bexarotene] + c1cc(-c2cnn3cc(-c4ccc(OCCN5CCCCC5)cc4)cnc23)ccn1 [Dorsomorphin] (first compound 10 µM, partner dose 2 µM)",56.4,78.2,80.1,104
"CCCS(=O)(=O)Nc1ccc(F)c(C(=O)c2c[nH]c3ncc(Cl)cc23)c1F + COc1ccc2c(c1)CCC1C2CCC2(C)C(NCCCCCCN3C(=O)C=CC3=O)CCC12 [U73122] (first compound 0.4 µM, partner dose 2 µM)",108,87.5,83.1,114
"CCCS(=O)(=O)Nc1ccc(F)c(C(=O)c2c[nH]c3ncc(Cl)cc23)c1F + O=C1NC(=O)/C(=C/c2ccc(-c3ccc(F)cc3O)o2)S1 [AS252424] (first compound 0.4 µM, partner dose 5 µM)",90.4,69.2,107,87.9
"CCCS(=O)(=O)Nc1ccc(F)c(C(=O)c2c[nH]c3ncc(Cl)cc23)c1F + c1cc(-c2cnn3cc(-c4ccc(OCCN5CCCCC5)cc4)cnc23)ccn1 [Dorsomorphin] (first compound 0.4 µM, partner dose 2 µM)",52.8,62.5,64.8,79.2
